Data taken from US20220340642A1 (Kyowa Kirin, published 2022).
Where a chain is given by its changes, count along the chain named. Names and notes keep the numbering of the source. Like-named read-outs stand apart in the source and are kept apart here. One block for each binder: values may come before it.

Key:
[1] = biological target: T1, soluble recombinant of human LIGHT (His10, GS linker, Asp74-Val240); assay: BIAcore SPR
T1 chain: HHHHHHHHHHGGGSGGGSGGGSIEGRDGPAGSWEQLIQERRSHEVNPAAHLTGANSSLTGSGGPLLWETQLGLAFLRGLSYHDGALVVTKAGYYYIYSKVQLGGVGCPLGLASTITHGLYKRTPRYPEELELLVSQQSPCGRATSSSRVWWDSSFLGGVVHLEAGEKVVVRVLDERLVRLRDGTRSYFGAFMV
Method in brief: (§1)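 On a BIAcore T-100 or T-200 instrument (GE Healthcare), with HBS-EP+ Buffer, surface plasmon resonance measured binding of each test molecule to soluble recombinant His-tagged LIGHT, TL1A or FasL. These proteins were of human or cynomolgus monkey origin. The dissociation constant (Kd, nM) was derived from the resulting data.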

[2] = biological target: T2, soluble recombinant of human TL1A (His6, GS linker, Leu72-Leu251) (UniProt O95150 72-251); assay: BIAcore SPR
T2 chain: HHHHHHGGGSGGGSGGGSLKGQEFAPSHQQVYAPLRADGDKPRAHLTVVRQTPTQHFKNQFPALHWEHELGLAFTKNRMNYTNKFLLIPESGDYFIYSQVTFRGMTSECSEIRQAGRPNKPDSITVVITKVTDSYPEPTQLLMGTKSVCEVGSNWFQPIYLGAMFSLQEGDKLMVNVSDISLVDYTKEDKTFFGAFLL
Method in brief: as §1

[3] = biological target: T3, soluble recombinant of human FasL (His6, Pro134-Leu281) (UniProt P48023 134-281); assay: BIAcore SPR
T3 chain: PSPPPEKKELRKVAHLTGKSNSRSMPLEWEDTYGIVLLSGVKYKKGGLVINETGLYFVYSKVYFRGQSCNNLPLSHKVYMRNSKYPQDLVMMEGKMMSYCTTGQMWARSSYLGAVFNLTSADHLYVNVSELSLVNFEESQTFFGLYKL
Method in brief: as §1

[4] = biological target: T1, soluble recombinant of human LIGHT …; assay: SPR
[5] = biological target: T2, soluble recombinant of human TL1A …; assay: SPR
[6] = biological target: T3, soluble recombinant of human FasL …; assay: SPR
[7] = biological target: T4, FLAG-LIGHT (FLAG tag, human LIGHT Asp74-Val240) (human, UniProt O43557 74-240); assay: SPR, binder captured, trimer ligand
T4 construct: SEC trimer fraction; also called soluble recombinant FLAG-LIGHT trimer; soluble human LIGHT trimer
Procedure: The binding activities to human DcR3 trimer ligands were analyzed by the SPR method. BIAcore T-100 (GE Healthcare) was used for measurement of the binding activities to human LIGHT and human TL1A, and BIAcore T-100 (GE Healthcare) or BIAcore T-200 (GE Healthcare) was used for measurement of the binding activity to human FasL. As the buffer, HBS-EP+Buffer was used.
After 10,000 RU of anti-human antibodies were immobilized to Series S Sensor Chip CM5 using Human Antibody Capture Kit (both of which are manufactured by GE Healthcare), various wild-type DcR3 controls and DcR3 variants were injected at the flow rate of 10 μL/min for 30 seconds and captured. Meanwhile, the buffer containing no protein was injected into a reference flow cell. Thereafter, as an analyte, each human DcR3 trimer ligand diluted to 0.02 to 80 nmol/L was injected at 30 μL/min for 2 minutes to monitor the binding, and subsequently the buffer was injected for 3 minutes to monitor dissociation. Then, 3 mol/L magnesium chloride was injected at 30 μL/min for 1 minute to perform a regeneration reaction.

[8] = biological target: T5, soluble recombinant of human FasL (His6, Pro134-Leu281) (human, UniProt P48023 134-281); assay: SPR, binder captured
T5 sequence: T3 chain
Procedure: (§2) Regarding each of the various wild-type DcR3 controls and the DcR3 variants shown in Table 9, the binding activities to DcR3 ligands (LIGHT, TL1A, FasL) were analyzed by the SPR method using BIAcore T-100 (GE Healthcare). As the buffer, HBS-EP+Buffer was used.
(§3) After 10,000 RU of anti-human antibodies were immobilized to Series S Sensor Chip CM5 using Human Antibody Capture Kit (GE Healthcare), various wild-type DcR3 controls and DcR3 variants were injected at the flow rate of 10 μL/min for 30 seconds and captured. Meanwhile, the buffer containing no protein was injected into reference flow cells. Thereafter, as an analyte, DcR3 ligands of a human, a cynomolgus monkey or a mouse diluted to 0.08 to 80 nmol/L were injected at 10 μL/min for 2 minutes to monitor the binding, and subsequently the buffer was injected for 3 minutes to monitor dissociation. Then, 3 mol/L magnesium chloride was injected at 20 μL/min for 1 minute to perform a regeneration reaction. […] As a result of measurement, except for mouse LIGHT for which a trimer could not be produced, it was confirmed that various wild-type DcR3 controls and DcR3 variants bind to each DcR3 ligand of a human, a cynomolgus monkey or a mouse.

[9] = biological target: T6, soluble recombinant of human TL1A (His6, GS linker, Leu72-Leu251) (human, UniProt O95150 72-251); assay: SPR, binder captured
T6 construct: also called His6-TL1A; hTL1A
T6 sequence: T2 chain
Procedure: as §2, §3

[10] = biological target: T7, soluble recombinant of human LIGHT (His10, GS linker, Asp74-Val240) (human); assay: SPR, binder captured
T7 chain: T1 chain
Procedure: as §2, §3

[11] = biological target: T1, soluble recombinant of human LIGHT …; assay: SPR
[12] = biological target: T2, soluble recombinant of human TL1A …; assay: SPR
[13] = biological target: T3, soluble recombinant of human FasL …; assay: SPR
[14] = biological target: T1, soluble recombinant of human LIGHT …; assay: BIAcore SPR
[15] = biological target: T2, soluble recombinant of human TL1A …; assay: BIAcore SPR
[16] = biological target: T3, soluble recombinant of human FasL …; assay: BIAcore SPR
[17] = biological target: T1, soluble recombinant of human LIGHT …; assay: SPR
[18] = biological target: T2, soluble recombinant of human TL1A …; assay: SPR
[19] = biological target: T3, soluble recombinant of human FasL …; assay: SPR

B3: chimera A-E57K-Fc (g4PEK) (Fc fusion)
chain: ETFPPKYLHYDEETSHQLLCDKCPPGTYLKQHCTAKWKTVCAPCPPRHYTQFWNYLKRCRYCNVLCGEREEEARACHATHNRACRCRTGFFAHAGFCLEHASCPPGAGVIAPGTPSQNTQCQPCPDGFFSNETSSKAPCRKHTNCSVFGLLLTQKGNATHDNICSGNSESTQK[omitted - human IgG4 Fc with S228P L235E R409K (EU numbers)]
- Kd [14]: 0.33 nM
- Kd [15]: 0.35 nM
- Kd [16]: 3.2 nM
- koff [17]: 0.000224 s⁻¹
- koff [18]: 0.000366 s⁻¹
- koff [19]: 0.00475 s⁻¹
- binding result [8]: binds
- binding result [10]: binds

B5: chimera A-E57L-Fc (g4PEK) (Fc fusion)
chain: B3 chain with K57L
- Kd [14]: 0.28 nM
- Kd [15]: 0.27 nM
- Kd [16]: 2.6 nM
- koff [17]: 0.000209 s⁻¹
- koff [18]: 0.000422 s⁻¹
- koff [19]: 0.0091 s⁻¹
- binding result [8]: binds
- binding result [10]: binds

B6: chimera A-Fc (g4PEK) R60L (Fc fusion)
chain: B3 chain with K57E, R60L
- koff [11]: 0.00022 s⁻¹
- koff [12]: 0.000328 s⁻¹
- koff [13]: 0.00111 s⁻¹

Next, values leading:

- Kd [1]: 0.18 nM
- Kd [2]: 0.14 nM
- Kd [3]: 0.53 nM
- koff [4]: 0.000172 s⁻¹
- koff [5]: 0.000275 s⁻¹
- koff [6]: 0.000944 s⁻¹
- binding result [7]: binds
- Kd [8]: 1 nM
- koff [8]: 0.001 s⁻¹
- kon [8]: 1e+06 M⁻¹ s⁻¹
- Kd [9]: 0.42 nM
- koff [9]: 0.00036 s⁻¹
- kon [9]: 870000 M⁻¹ s⁻¹
- Kd [10]: 0.62 nM
- koff [10]: 0.00033 s⁻¹
- kon [10]: 540000 M⁻¹ s⁻¹
B1: chimera A-Fc (g4PEK) (Fc fusion)
chain: B3 chain with K57E
notes: also called Chimera A-g4PEK

- koff [11]: 0.000925 s⁻¹
- koff [12]: 0.000649 s⁻¹
- koff [13]: 0.00519 s⁻¹
- binding result [8]: binds
- binding result [9]: binds
- binding result [10]: binds
B2: chimera A-R60K-Fc (g4PEK) (Fc fusion)
chain: B3 chain with K57E, R60K

- koff [11]: 0.000474 s⁻¹
- koff [12]: 0.000848 s⁻¹
- koff [13]: 9.49e-06 s⁻¹
B4: chimera A-Fc (g4PEK) R60D (Fc fusion)
chain: B3 chain with K57E, R60D
